From publication PMC4336329 (PLoS ONE, 2015) come the findings set out here.

The campaign covered roughly 310,000 compounds. About 2,200 (0.71%) showed an effect of 50% or more. Effects have a minus sign here. The list shows a part of the results.

Chain of human ether-à-go-go-related gene (hERG) potassium channel (Q12809 whole entry, looked up): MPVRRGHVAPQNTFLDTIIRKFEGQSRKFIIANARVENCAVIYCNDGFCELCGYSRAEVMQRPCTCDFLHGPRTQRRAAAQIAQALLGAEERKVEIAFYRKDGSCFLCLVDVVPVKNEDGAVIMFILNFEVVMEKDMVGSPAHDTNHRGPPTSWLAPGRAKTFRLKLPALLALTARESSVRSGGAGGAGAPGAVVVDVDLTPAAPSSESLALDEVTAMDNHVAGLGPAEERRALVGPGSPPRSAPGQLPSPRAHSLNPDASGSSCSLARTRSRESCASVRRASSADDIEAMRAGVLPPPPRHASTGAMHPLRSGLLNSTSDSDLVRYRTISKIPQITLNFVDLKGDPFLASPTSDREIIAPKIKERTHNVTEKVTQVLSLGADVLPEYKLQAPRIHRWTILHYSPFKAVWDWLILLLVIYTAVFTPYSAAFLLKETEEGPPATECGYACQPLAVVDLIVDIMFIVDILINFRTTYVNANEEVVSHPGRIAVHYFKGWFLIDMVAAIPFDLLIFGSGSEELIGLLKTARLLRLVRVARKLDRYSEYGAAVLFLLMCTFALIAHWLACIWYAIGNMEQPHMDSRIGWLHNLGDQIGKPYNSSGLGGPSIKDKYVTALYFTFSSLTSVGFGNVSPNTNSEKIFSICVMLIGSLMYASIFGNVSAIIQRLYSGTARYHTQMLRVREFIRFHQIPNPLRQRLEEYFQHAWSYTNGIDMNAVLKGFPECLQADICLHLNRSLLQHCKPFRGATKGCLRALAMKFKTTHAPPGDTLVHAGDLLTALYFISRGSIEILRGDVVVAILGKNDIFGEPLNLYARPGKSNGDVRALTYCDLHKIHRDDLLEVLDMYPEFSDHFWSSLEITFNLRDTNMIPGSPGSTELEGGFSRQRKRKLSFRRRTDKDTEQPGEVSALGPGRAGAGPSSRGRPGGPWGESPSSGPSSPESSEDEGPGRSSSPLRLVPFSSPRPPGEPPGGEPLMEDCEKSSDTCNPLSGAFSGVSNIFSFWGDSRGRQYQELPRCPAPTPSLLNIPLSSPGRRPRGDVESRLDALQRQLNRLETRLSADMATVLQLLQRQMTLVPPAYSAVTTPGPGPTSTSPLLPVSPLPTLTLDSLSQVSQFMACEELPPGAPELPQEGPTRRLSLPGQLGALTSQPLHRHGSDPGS

This assay addresses human ether-à-go-go-related gene (hERG) potassium channel (human, UniProt Q12809). The experiment in a line: primary screen, population patch clamp on CHO cells stably expressing hERG.
In the case of `CCOc1ccc(N(C(C)=O)c2nc(C)cc(C)c2C#N)cc1`, the “hERG current change (%, negative = inhibition) at 1uM” value came out at 6.86%.

On to `O=C(CNS(=O)(=O)c1ccccc1)N1CCN(Cc2ccccc2)CC1`, for which the “hERG current change (%, negative = inhibition) at 1uM” value was 11.3%.

`Cc1sc2nc(CN3CCN(c4ccc(O)cc4)CC3)[nH]c(=O)c2c1C`: the “hERG current change (%, negative = inhibition) at 1uM” value was found to be 13.1%.

As to `O=C(CSc1ccsc1[N+](=O)[O-])NCCc1ccccc1`, the “hERG current change (%, negative = inhibition) at 1uM” value was 3.59%.

As for `c1ccc(-c2cc(N3CCCCC3)c3ccccc3n2)cc1`, the “hERG current change (%, negative = inhibition) at 1uM” value came out at 11.9%.

As for `CC(C)Cc1nnc(NC(=O)c2cccc(S(=O)(=O)N3CCN(C)CC3)c2)s1`, the “hERG current change (%, negative = inhibition) at 1uM” value was found to be 11.3%.

For the compound `Cc1ccc(/C=C/C(=O)NC(=S)Nc2ccc(S(=O)(=O)Nc3cc(C)on3)cc2)cc1`, the “hERG current change (%, negative = inhibition) at 1uM” value is on record as 14.1%.

Regarding `O=C1C=C(c2cc(C(F)(F)F)cc(C(F)(F)F)c2)C[C@@H](c2ccc3c(c2)OCO3)C1`, the “hERG current change (%, negative = inhibition) at 1uM” value was 14%.

In the case of `COc1ccc2ccccc2c1/C=N/NC(=O)c1ccc([N+](=O)[O-])cc1`, the “hERG current change (%, negative = inhibition) at 1uM” value amounted to 15.2%.

In the case of `COCCn1c(=NC(=O)C2COc3ccccc3O2)sc2cc(S(N)(=O)=O)ccc21` (stereo not shown), the “hERG current change (%, negative = inhibition) at 1uM” value was 3.87%.

With `c1ccc(CCNc2cnccn2)cc1`, the “hERG current change (%, negative = inhibition) at 1uM” value is reported as 15.2%.

Take `O=C(CNc1ccccc1)c1ccc([N+](=O)[O-])cc1`: the “hERG current change (%, negative = inhibition) at 1uM” value was found to be 2.78%.

As for `O=C(C(Cl)c1ccccc1)N1CCOCC1` (stereo not shown), the “hERG current change (%, negative = inhibition) at 1uM” value was determined as 12.3%.

Take `Cc1ccc(C)c(S(=O)(=O)N2CCN(C(=O)C3CCN(C(=O)c4ccc(F)cc4)CC3)CC2)c1`: the “hERG current change (%, negative = inhibition) at 1uM” value was -4.34%.

On to `COc1cccc(NC(=S)N2CCCN(Cc3ccc(F)cc3)C2)c1`, for which the “hERG current change (%, negative = inhibition) at 1uM” value was -7.19%.

With `COc1cc(CN2CCN(C(O)(c3ccccc3)c3ccccc3)CC2)cc(OC)c1OC.O=C(O)C(=O)O`, the “hERG current change (%, negative = inhibition) at 1uM” value is reported as -9.5%.

As to `O/N=C/c1ccc(OCc2ccccc2)c(Cl)c1`, the “hERG current change (%, negative = inhibition) at 1uM” value worked out at 5.06%.

With `Cc1cc(C)c2nc3nc(C)cc(C)c3c(N)c2c1`, the “hERG current change (%, negative = inhibition) at 1uM” value is reported as -41%.

In the case of `CCc1cccc(NC(=O)CCCCCC2NC(=O)NC2C)c1` (stereo not shown), the “hERG current change (%, negative = inhibition) at 1uM” value is 14.5%.

Take `NC(=O)C1=C[C@@H](c2coc3ccccc3c2=O)C[C@@H](OCc2ccc(CO)cc2)O1`: the “hERG current change (%, negative = inhibition) at 1uM” value came to 8.71%.

Consider `C[N+]1(C)CCCC(OC(=O)C(O)(c2ccccc2)c2ccccc2)C1.[Br-]` (stereo not shown), for which the “hERG current change (%, negative = inhibition) at 1uM” value is 13.7%.

Regarding `C=COc1ccc(N2C(=O)c3ccccc3OC2C)cc1` (stereo not shown), the “hERG current change (%, negative = inhibition) at 1uM” value is 11.1%.

Turning to `OC(COc1ccc(CNCCc2ccc(C(F)(F)F)cc2)cc1)CN1CCCCC1` (stereo not shown), the “hERG current change (%, negative = inhibition) at 1uM” value was 13.9%.

As for `COCCNC(=O)CSc1ccccc1C(=O)O`, the “hERG current change (%, negative = inhibition) at 1uM” value was found to be 13.4%.

In the case of `COc1ccc(N2CCN(C(=O)CNC(=O)c3cn(-c4ccccc4OC)c(=O)c4ccccc34)CC2)cc1`, the “hERG current change (%, negative = inhibition) at 1uM” value amounted to 0.742%.

Consider `COc1cc(CN2CCCC(CO)(Cc3cccc(Cl)c3)C2)cc2c1OCO2` (stereo not shown), for which the “hERG current change (%, negative = inhibition) at 1uM” value was -15.4%.

Consider `COc1ccc(/C=N\NC(=O)c2ccc(-c3ccccc3)cc2)cc1COC(C)=O`, for which the “hERG current change (%, negative = inhibition) at 1uM” value was determined as 10.9%.

`CCOc1cc(S(=O)(=O)N2CCC(Cc3ccccc3)CC2)c(OCC)cc1-n1cnnn1`: the “hERG current change (%, negative = inhibition) at 1uM” value worked out at 16.5%.

Consider `CCCCc1cc(=O)oc2cc(C)cc(OCC(=O)NCC3CCC(C(=O)O)CC3)c12` (stereo not shown), for which the “hERG current change (%, negative = inhibition) at 1uM” value came out at 5.59%.

As for `O=C(COC(=O)c1ccc(O)cc1O)NC1CCS(=O)(=O)C1` (stereo not shown), the “hERG current change (%, negative = inhibition) at 1uM” value was determined as 6.44%.

As to `CN1C(=O)C(C(=O)Nc2ccccc2F)c2ccccc21` (stereo not shown), the “hERG current change (%, negative = inhibition) at 1uM” value was -0.379%.

As to `C/C(=N\Nc1ccccc1)c1c(O)[nH]c(=O)[nH]c1=O`, the “hERG current change (%, negative = inhibition) at 1uM” value was found to be 11.8%.

For `COc1cc(NC(=O)c2cccs2)ccc1NC(=O)Cc1ccccc1`, the “hERG current change (%, negative = inhibition) at 1uM” value was 9.57%.

Regarding `O=C(OCC(=O)N1CCN(c2ccccc2)CC1)c1ncc(Cl)c(Cl)c1Cl`, the “hERG current change (%, negative = inhibition) at 1uM” value was found to be 11.2%.

For `O=C(Nc1cccc(Cl)c1)Nc1ccnc(-c2cccnc2)n1`, the “hERG current change (%, negative = inhibition) at 1uM” value turned out to be 3.23%.

As to `Cc1ccccc1N1C(=O)CC1(C#N)c1ccc(OCc2ccccc2)cc1` (stereo not shown), the “hERG current change (%, negative = inhibition) at 1uM” value was determined as 10.4%.

`CC(C)CCN1CCN(Cc2ccc(C#CCCO)cc2)CC1CCO` (stereo not shown): the “hERG current change (%, negative = inhibition) at 1uM” value is recorded as 5.37%.

Turning to `COc1nc(C)nc2c1sc1nc3c(cc12)COC(C)(C)C3`, the “hERG current change (%, negative = inhibition) at 1uM” value amounted to 17.4%.

Consider `Cc1cc2nc(CSc3ccccc3)cc(=O)n2[nH]1`, for which the “hERG current change (%, negative = inhibition) at 1uM” value is listed as 16.1%.

`CC1CCN(Cc2c(O)ccc3c(=O)c(-c4nc5ccccc5s4)c(N)oc23)CC1`: the “hERG current change (%, negative = inhibition) at 1uM” value is -0.932%.

Regarding `Cc1ccc(-c2csc(N3CCN(c4ccc5nc(-c6ccncc6)n(CCN6CCCCC6)c5c4)CC3)n2)cc1`, the “hERG current change (%, negative = inhibition) at 1uM” value came out at 17%.

For `O=C(c1ccc(F)cc1)N(NC(=O)C(O)(c1ccccc1)c1ccccc1)c1ccccc1`, the “hERG current change (%, negative = inhibition) at 1uM” value is on record as -1.15%.

As to `CC(=O)Nc1ccc(N/C=C/C(=O)c2ccco2)cc1`, the “hERG current change (%, negative = inhibition) at 1uM” value came out at 10.2%.

For `Cc1cccc2cc(CN(Cc3ccc4c(c3)OCO4)Cc3nnnn3C3CCCC3)c(=O)[nH]c12`, the “hERG current change (%, negative = inhibition) at 1uM” value worked out at 2.01%.

`Cc1cc(C(=O)N/N=C2\CC(=O)c3ccccc32)c(C)n1-c1ccccc1`: the “hERG current change (%, negative = inhibition) at 1uM” value came to 13.3%.

Consider `COc1ccccc1CN1CCCC(N2CCN(c3ccc(F)cc3)CC2)C1` (stereo not shown), for which the “hERG current change (%, negative = inhibition) at 1uM” value is on record as -21.4%.

For `CCc1cc2c(C)ccc(C)c2nc1SCC(=O)Nc1c(C)[nH]c(=O)[nH]c1=O`, the “hERG current change (%, negative = inhibition) at 1uM” value is 4.46%.

For the compound `O=C(CCCC1=NS(=O)(=O)c2ccccc2N1)Nc1ccccc1`, the “hERG current change (%, negative = inhibition) at 1uM” value is recorded as -4.42%.

Take `CC(=O)c1sc(NC(=O)COc2ccc(C)c(C)c2)nc1C`: the “hERG current change (%, negative = inhibition) at 1uM” value worked out at 5.95%.

Consider `CC(C)(C)n1ncc2c(=O)n(Cc3ccc(Cl)c(Cl)c3)cnc21`, for which the “hERG current change (%, negative = inhibition) at 1uM” value is listed as 5.72%.

`O=C(NC1CCCCC1)Sc1ccc(Cl)cc1`: the “hERG current change (%, negative = inhibition) at 1uM” value came to 2.09%.

In the case of `O=C(COC(=O)c1ccc([N+](=O)[O-])o1)Nc1cccc(S(=O)(=O)N2CCCCC2)c1`, the “hERG current change (%, negative = inhibition) at 1uM” value was -15.9%.

Turning to `Cc1ccccc1-c1noc(CCC(=O)NC2CCCCC2)n1`, the “hERG current change (%, negative = inhibition) at 1uM” value worked out at 10.6%.

For `COc1ccc(/C=N/NC(=O)c2ccc(NC(=O)c3cccc([N+](=O)[O-])c3)cc2)c(C(=O)O)c1OC`, the “hERG current change (%, negative = inhibition) at 1uM” value is 11.3%.

For the compound `COC(=O)CSc1nnc2n(C3CCCCC3)c(=O)c3c4c(sc3n12)CCCC4`, the “hERG current change (%, negative = inhibition) at 1uM” value was determined as 1.02%.
